Here are results for 99 compounds from paper PMC6919601, “Identification of Plasmodium dipeptidyl aminopeptidase allosteric inhibitors by high throughput screening” (PLoS ONE, 2019).

Several values for one entry are separate records, joined by “and”; a condition that tells them apart may be missing. Identical values can stand only once. About 230 (0.21%) of roughly 110,000 compounds showed an effect of 50% or more. The list shows a part of the results.
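Note: 30 min substrate incubation versus DMSO and 10 µM JCP410 controls.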

The target of the experiment is DPAP1 (Plasmodium falciparum, UniProt Q8IIJ9). The experiment is described as follows: primary screen, percent inhibition; read by cleavage of a fluorogenic dipeptide substrate; higher = more effect of the substance. Set-up: species or system P. falciparum D10 trophozoite lysates; single well.
Chain of DPAP1 (Q8IIJ9 whole entry, looked up): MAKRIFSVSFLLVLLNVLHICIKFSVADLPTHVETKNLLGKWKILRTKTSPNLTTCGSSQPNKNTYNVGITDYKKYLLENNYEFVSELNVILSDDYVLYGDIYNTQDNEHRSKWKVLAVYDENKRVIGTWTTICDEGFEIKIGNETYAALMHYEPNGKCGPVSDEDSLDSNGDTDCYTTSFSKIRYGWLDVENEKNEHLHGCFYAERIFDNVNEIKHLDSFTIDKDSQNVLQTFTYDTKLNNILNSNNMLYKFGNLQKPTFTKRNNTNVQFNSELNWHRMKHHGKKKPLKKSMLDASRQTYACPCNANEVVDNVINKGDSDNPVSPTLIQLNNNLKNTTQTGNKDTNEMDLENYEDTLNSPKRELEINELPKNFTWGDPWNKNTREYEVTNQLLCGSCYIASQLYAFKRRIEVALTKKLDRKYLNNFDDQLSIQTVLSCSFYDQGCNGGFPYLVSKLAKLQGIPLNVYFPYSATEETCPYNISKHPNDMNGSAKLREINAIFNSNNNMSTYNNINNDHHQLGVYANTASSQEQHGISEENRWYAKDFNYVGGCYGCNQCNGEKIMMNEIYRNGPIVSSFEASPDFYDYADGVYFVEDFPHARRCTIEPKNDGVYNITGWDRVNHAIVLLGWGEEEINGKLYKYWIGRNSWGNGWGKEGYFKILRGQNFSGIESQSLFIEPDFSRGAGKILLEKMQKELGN
In the case of `CCCCN(C)C(=O)c1coc(=O)c2ccccc12`, the “% Inhibition @ 10 uM” value was determined as 0.974%.
In the case of `O=C(Nc1ccc(-c2nc(O)c3ccccc3n2)cc1)C1CCCCC1` it was 2.42%; in that of `Cc1ccc(-c2nc(CS(=O)(=O)CC(=O)NCCN(C)C)c(C)o2)cc1`, 3.19%.
As to `CCN(Cc1ccccc1)C(=O)C(c1ccccc1)N1Cc2ccccc2C1=O` (stereo not drawn), the “% Inhibition @ 10 uM” value was -4.96%.
As for `O=C(Nc1cccc(OC(F)(F)F)c1)c1cccnc1`, the “% Inhibition @ 10 uM” value is -3.83%.
In the case of `Cc1cc(C)n(CC(=O)O)c(=O)n1` it was -0.0267%.
As for `CCOc1ccc(-c2nonc2NC(=O)Cc2ccc(Cl)cc2)cc1`, the figure is -1.11%; as for `Cc1ccc(CS(=O)Cc2ccc(C(=O)NCCC(C)C)o2)cc1` (stereo not drawn), 5.91%; as for `Cc1cccc(NC(=O)c2cccc(S(=O)(=O)N3CCCCC3)c2)c1`, -11.4%.
As for `Cc1nnc2nc(SCC(=O)NCc3ccco3)n(-c3ccccc3Cl)c(N)c1-2`, the figure is -3.93%.
Take `COc1ccc(C2CC(O)=C/C(=N/C3CCCCCC3)C2)cc1` (stereo not drawn): the “% Inhibition @ 10 uM” value was -0.105%.
As for `COc1cccc(Nc2nc(-c3cc(C)ccc3C)cs2)c1`, the figure is 2.78% and 5.29%; as for `Cn1c(=O)c2c(O)c(Sc3ccccc3C(=O)O)c(=O)n(C)c2n(C)c1=O`, -1.07%.
Take `COc1ccc(CNCc2ccc(Cl)cc2)cc1OC`: the “% Inhibition @ 10 uM” value is -1.92%.
For the compound `COc1cc2sc(C)nc2cc1C`, the “% Inhibition @ 10 uM” value amounted to 0.0345%.
In the case of `Cc1cc(=O)oc2c1c(C)nn2-c1ccc(C(=O)O)cc1` it was 4.96%; in that of `C=CCC1(C#N)C(S)=NC(C)=C(C(C)=O)C1c1ccc(Cl)cc1` (stereo not drawn), -2.81%.
As for `COc1ccc(CC(=O)Nc2nc3nc(C)cc(O)n3n2)cc1`, the figure is 0.401%; as for `COc1ccc(-c2nnn(CC(=O)O)n2)cc1`, 3.73%; as for `CCCOC(=O)C1=C(C)NC(=O)NC1c1ccc(CC)cc1` (stereo not drawn), 14.5%.
Turning to `O=C(NCCCN1CCCCCC1)C1CC(=O)N(CCc2ccccc2)C1` (stereo not drawn), the “% Inhibition @ 10 uM” value turned out to be 3.24%.
As for `Cc1cc2c(cc1Br)NC(=O)C21C(C#N)=C(N)OC2=C1C(=O)CC(C)(C)C2` (stereo not drawn), the “% Inhibition @ 10 uM” value is listed as -4.15%.
As for `CCCCOc1ccc(N2C(=O)CC(N3CCN(Cc4ccc5c(c4)OCO5)CC3)C2=O)cc1` (stereo not drawn), the figure is 0.52%.
In the case of `CC1CC(C)CN(c2cnnc3c(Cl)cccc23)C1` (stereo not drawn) it was 2.76%.
In the case of `CC1(C)CC(C)(C)OC(c2ccccc2)=N1` it was 2.94%.
For `CCc1ccc2oc(C(=O)Nc3nonc3C)c(C)c2c1`, the “% Inhibition @ 10 uM” value is recorded as 3.51%.
In the case of `CCOC(=O)c1c(C)n(-c2ccc(OC)cc2)c2ccc(O)c(CN3CCOCC3)c12` it was 1.76%; in that of `Cc1ccc(C(=O)Nc2ccc(C)c(O)c2)cc1C`, 0.907%.
`CCOc1cc2c(cc1OCC)C(c1cc(OC)ccc1F)NCC2` (stereo not drawn): the “% Inhibition @ 10 uM” value amounted to 1.93%.
In the case of `COCCCNC(=O)CSc1nc2c(sc3ccccc32)c(=O)n1CCC(=O)NC(C)C` it was 6.26%; in that of `COc1ccc(NC(=O)CN(c2ccc(Cl)cc2Cl)S(=O)(=O)c2ccccc2)c(OC)c1`, -2.09%; in that of `COC(=O)c1c(NC(=O)CCC(=O)O)sc(C)c1-c1ccc(C)c(C)c1`, 29.7%.
In the case of `C=Cc1ccc(Cn2c(C(=O)O)c(CNCc3ccc(C)o3)c3ccccc32)cc1` it was 5.94%.
Take `CC1=C(C(=O)Nc2ccccc2C)C(c2ccc(N(C)C)cc2)NC(S)=N1` (stereo not drawn): the “% Inhibition @ 10 uM” value is -3.35%.
In the case of `CCCCNS(=O)(=O)c1ccc(OC)c(-c2nnc3c4ccccc4c(C)nn23)c1`, the “% Inhibition @ 10 uM” value is given as -3.14%.
As for `O=C(NCc1ccc(F)cc1)c1cc2ccccc2oc1=O`, the figure is 3.94%.
As for `CS(=O)(=O)N(CC(=O)Nc1ccccc1C(F)(F)F)Cc1ccccc1`, the figure is -4.39%.
Turning to `CC(=O)c1sc(NC(=O)COc2ccc(C)c(C)c2)nc1C`, the “% Inhibition @ 10 uM” value was determined as 1.08%.
As for `COc1cc(/C=C2\C(=O)N(c3ccccc3)N=C2C)c([N+](=O)[O-])cc1OC`, the figure is 3.83%; as for `Cc1ccc(Cn2c(C)c(C=O)c(C(=O)O)c2C)cc1`, -3.53%.
In the case of `Cc1ccc(Oc2ccc(N3C(=O)c4ccc(Oc5ccc(N)cc5)cc4C3=O)cc2)cc1C` it was 3.47%; in that of `COc1ccc(OC)c(NC(=O)CCCOc2ccc(Cl)cc2C)c1`, 5.73%; in that of `COc1ccc(NC(=O)CN(c2ccccc2F)S(=O)(=O)c2ccccc2)cc1`, -0.185%.
In the case of `CC1=C(C(=O)Nc2ccc(C)cc2)C(c2ccc(Cl)cc2Cl)NC(S)=N1` (stereo not drawn), the “% Inhibition @ 10 uM” value is on record as -1.76%.
In the case of `COCCNC(=O)c1sc2ncn(CC(=O)N3CCCCC3C)c(=O)c2c1C` (stereo not drawn) it was 4.35%; in that of `Cc1ccc(OCCOc2ccc(/C=C3\C(=N)N4N=C(N5CCOCC5)SC4=NC3=O)cc2)cc1`, 7.84%; in that of `O=C(CC(c1ccccc1)c1ccccc1O)N1CCNCC1` (stereo not drawn), 3.54%.
In the case of `O=C(O)/C(=C\c1ccccc1)NC(=O)c1cccc(Br)c1` it was -4.13%.
On to `Cc1cc(C)c2c(CC(=O)Nc3cccnc3)coc2c1`, for which the “% Inhibition @ 10 uM” value is listed as -0.671%.
On to `Cc1[nH]nc(O)c1C(c1cc2c(cc1Cl)OCO2)c1c(O)n[nH]c1C`, for which the “% Inhibition @ 10 uM” value came to 5.07%.
In the case of `O=C(O)[C@@H]1CSC(c2ccco2)N1` (stereo partly drawn) it was -9.13%.
As for `O=C1CCCC2=C1C(c1ccc(OCc3ccccc3)cc1)C1=C(CCCC1=O)O2`, the “% Inhibition @ 10 uM” value is given as 0.52%.
As for `O=C1OC(c2ccc(Cl)cc2)=N/C1=C\N1CCCCC1`, the figure is -0.48%; as for `CC(CCc1ccccc1)NCc1c(C(=O)O)n(Cc2ccc(F)cc2)c2ccccc12` (stereo not drawn), 3.54%.
For the compound `Cc1ccc(CN2CCN(CC(=O)NC(C)c3ccccc3)C2=O)cc1` (stereo not drawn), the “% Inhibition @ 10 uM” value is given as -2.7%.
Take `C=CCn1c(C(O)c2ccccc2)nc2ccccc21` (stereo not drawn): the “% Inhibition @ 10 uM” value is on record as -1.37%.
In the case of `Cc1cc(C)nc(NC(=O)NS(=O)(=O)N(Cc2ccccc2)c2ccccc2)n1` it was 0.716%.
As for `CCOC(=O)c1[nH]c2c(c1Cc1ccccc1C)C(=O)CC(C)(C)C2`, the “% Inhibition @ 10 uM” value is recorded as -3.87%.
As for `O=S(=O)(NCc1csc(-c2cccnc2)n1)c1ccc(Br)cc1`, the figure is -0.72%; as for `COc1cc(OC)cc(-c2nc3cc(Cl)ccc3o2)c1`, 0.993%.
As for `Cc1ccc(OCCn2cnc3ccccc32)c(C(C)C)c1`, the figure is 1.72%; as for `COc1ccc(S(=O)(=O)Nc2ccncc2)c(C)c1C`, -2.21%.
As for `COc1ccc2c(c1)C(=O)N(c1ccccc1)C(=O)/C2=C\N1CCCCC1`, the figure is 9.01%; as for `CCN(CC)C(=O)Cn1cc(SCC(=O)NC(C)(C)C)c2ccccc21`, 2.19%; as for `O=C(NCc1ccc(Cl)cc1)C(=O)NC1CCCCC1`, 1.57%.
As to `COc1ccc(/N=C2/S/C(=C\c3cc(OC)c(OC)c(OC)c3)C(=O)N2C)cc1`, the “% Inhibition @ 10 uM” value was determined as 0.161%.
With `COc1cccc(C2=NN(C(=O)c3ccco3)C(O)(C(F)(F)F)C2)c1` (stereo not drawn), the “% Inhibition @ 10 uM” value was -5.14%.
In the case of `CCOC(=O)N1CCC(NC(c2nnc(-c3ccccc3)o2)c2ccc(F)cc2Cl)CC1` (stereo not drawn) it was -2.29%; in that of `CCN1CCN(c2ncnc3c2c(-c2ccccc2)cn3-c2cccc(Cl)c2)CC1`, 3.36%; in that of `CCN(CC)C(=O)CN(C#N)c1nc(OC)nc(N(C)C)n1`, -6.37%.
In the case of `c1ccc(Oc2cc(-c3ccccc3)nc(-c3ccccc3)n2)cc1` it was -3.26%; in that of `CC1CC(C)CN(C(=O)Cn2cc3c(n2)CCCCC3)C1` (stereo not drawn), -3.35%; in that of `C=C(C)[C@H]1CC=C(CN2CCc3cc(OC)c(OC)cc3C2c2cccc(Cl)c2)CC1` (stereo partly drawn), -0.13%.
In the case of `CC1CCN(S(=O)(=O)c2ccc(NC(=O)CC(C)c3ccccc3)cc2)CC1` (stereo not drawn), the “% Inhibition @ 10 uM” value was -1.99%.
Consider `Cc1ccc(/C(=C\N2CCCC2)S(=O)(=O)c2ccc(C)cc2)cc1`, for which the “% Inhibition @ 10 uM” value was -6.74%.
As to `CC1CCN(CC(O)COc2ccc3ccccc3c2)CC1` (stereo not drawn), the “% Inhibition @ 10 uM” value was -5.96%.
On to `COc1nc2c(c(=O)n(C)c(=O)n2C)n1Cc1ccccc1Cl`, for which the “% Inhibition @ 10 uM” value worked out at 0.493%.
In the case of `Cc1ccc(Cn2c(=O)c3cccnc3n(Cc3cc(=O)n4cc(Cl)ccc4n3)c2=O)cc1` it was -3.66%; in that of `COc1ccccc1OCC(=O)Nc1ccc(S(=O)(=O)N2CCOCC2)cc1`, -8.59%.
As for `O=C(Cn1cnc2c(cnn2-c2ccccc2)c1=O)c1ccc(Cl)cc1`, the figure is -5.37%; as for `COC(=O)c1cc(OC)c(OC)cc1NC(=O)C12CC3CC(CC(C3)C1)C2`, -0.128%.
In the case of `CC1(C)CC(=O)C2=C(C1)NC(=O)CC2c1ccccc1Cl` (stereo not drawn) it was -4.49%; in that of `O=C(NCc1ccccc1)c1ccc2snnc2c1`, -9.25%.
For the compound `CCOc1ccc(NC(=O)Nc2ccc(NC(=O)Nc3ccc(OCC)cc3)cc2)cc1`, the “% Inhibition @ 10 uM” value is recorded as -3.04%.
`CN(c1ccc(C(=O)Nc2cccc(N(C)S(C)(=O)=O)c2)cc1)S(C)(=O)=O`: the “% Inhibition @ 10 uM” value is recorded as -0.469%.
Take `O=C(NCCN1CCC(Cc2ccccc2)CC1)C1CCN(c2nc3ccccc3n3cccc23)CC1`: the “% Inhibition @ 10 uM” value is -3.18%.
For `CS(=O)(=O)N(CC(=O)Nc1ccccc1)c1ccc(Br)cc1`, the “% Inhibition @ 10 uM” value came out at 0.108%.
As for `CCOc1nc(-c2ccc(C)cc2)ccc1-c1noc(C(C)C)n1`, the figure is -5%.
As to `O=C(NCCC1=CCCCC1)c1cc(-c2ccco2)[nH]n1`, the “% Inhibition @ 10 uM” value was found to be 7.2%.
In the case of `Cc1ccccc1Cn1nnc2c(O)nc(C3CCCN(C(=O)c4ccccc4Cl)C3)nc21` (stereo not drawn) it was 3.81%.
For the compound `O=C(CSc1nnc(CN2CCOCC2)n1-c1ccccc1)c1ccc2c(c1)CCCC2`, the “% Inhibition @ 10 uM” value is on record as -2.42%.
On to `Cc1ccc(CNCc2c(C(=O)O)n(C)c3ccccc23)cc1`, for which the “% Inhibition @ 10 uM” value was 5.09%.
For the compound `O=C(CCn1cccn1)NCCCc1ccccc1`, the “% Inhibition @ 10 uM” value was -5.72%.
In the case of `c1ccc2oc(SCc3nc4c5c6c(sc5ncn4n3)CCCCC6)nc2c1` it was 3.43%; in that of `Cc1cc(NC(=O)C2CCCN(c3ncnc4c3nc3n4CCCCC3)C2)no1` (stereo not drawn), 5.49%.
In the case of `O=c1c(CN2CCC3(C=Cc4ccccc43)CC2)coc2ccccc12`, the “% Inhibition @ 10 uM” value is recorded as 3.35%.
`CCN(C(=O)/C=C/c1cccc([N+](=O)[O-])c1)c1ccccc1`: the “% Inhibition @ 10 uM” value is -3.71%.
Turning to `Cc1cc(C)c(C(N)=O)c(NCCc2ccccc2)n1`, the “% Inhibition @ 10 uM” value was -3.5%.
As for `CCOC(=O)C1=CN(C(C)C)C=C(C(=O)OCC)C1c1cc(Br)ccc1OC`, the figure is 1.66%.
